Source: paper PMC5823669, “Multi-chaperone function modulation and association with cytoskeletal proteins are key features of the function of AIP in the pituitary gland” (Oncotarget, 2018)
Results are given in words; binding and its absence hold for the method and conditions named. In cells and extracts the contact can be indirect. Some results given as binding are weak or reduced against the parent protein; the word gives no strength. Sequences can lack the tags named with a protein.

By UniProt entry, the sequences of proteins in these tests, tags left out. Residues count along the entry.
UniProt P15531: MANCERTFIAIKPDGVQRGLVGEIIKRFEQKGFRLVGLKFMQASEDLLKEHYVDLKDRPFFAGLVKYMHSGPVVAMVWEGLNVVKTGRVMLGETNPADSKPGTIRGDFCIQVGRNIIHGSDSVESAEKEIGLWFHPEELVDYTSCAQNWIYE
UniProt P00441: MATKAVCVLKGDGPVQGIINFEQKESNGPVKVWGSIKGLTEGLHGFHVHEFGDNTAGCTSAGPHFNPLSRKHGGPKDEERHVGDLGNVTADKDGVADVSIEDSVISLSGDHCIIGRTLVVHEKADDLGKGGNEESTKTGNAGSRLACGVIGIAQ
UniProt P08238: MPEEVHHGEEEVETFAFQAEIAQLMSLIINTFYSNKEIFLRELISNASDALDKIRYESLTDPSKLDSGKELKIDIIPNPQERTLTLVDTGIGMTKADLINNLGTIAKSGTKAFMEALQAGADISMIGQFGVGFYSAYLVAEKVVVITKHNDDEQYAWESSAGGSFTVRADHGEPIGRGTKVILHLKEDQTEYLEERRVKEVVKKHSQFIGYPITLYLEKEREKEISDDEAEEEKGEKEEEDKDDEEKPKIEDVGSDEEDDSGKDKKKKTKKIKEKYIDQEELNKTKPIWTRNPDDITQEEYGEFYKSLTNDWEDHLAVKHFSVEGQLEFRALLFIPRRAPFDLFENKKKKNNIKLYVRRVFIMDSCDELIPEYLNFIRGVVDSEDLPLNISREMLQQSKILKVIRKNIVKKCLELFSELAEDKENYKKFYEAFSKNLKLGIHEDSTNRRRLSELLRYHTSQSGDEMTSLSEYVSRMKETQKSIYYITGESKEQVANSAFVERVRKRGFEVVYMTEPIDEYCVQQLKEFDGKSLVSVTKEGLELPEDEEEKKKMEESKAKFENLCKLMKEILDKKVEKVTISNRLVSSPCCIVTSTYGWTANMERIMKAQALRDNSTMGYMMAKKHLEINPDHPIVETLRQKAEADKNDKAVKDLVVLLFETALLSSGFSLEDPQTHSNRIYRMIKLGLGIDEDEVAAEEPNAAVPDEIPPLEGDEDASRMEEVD
UniProt Q13885: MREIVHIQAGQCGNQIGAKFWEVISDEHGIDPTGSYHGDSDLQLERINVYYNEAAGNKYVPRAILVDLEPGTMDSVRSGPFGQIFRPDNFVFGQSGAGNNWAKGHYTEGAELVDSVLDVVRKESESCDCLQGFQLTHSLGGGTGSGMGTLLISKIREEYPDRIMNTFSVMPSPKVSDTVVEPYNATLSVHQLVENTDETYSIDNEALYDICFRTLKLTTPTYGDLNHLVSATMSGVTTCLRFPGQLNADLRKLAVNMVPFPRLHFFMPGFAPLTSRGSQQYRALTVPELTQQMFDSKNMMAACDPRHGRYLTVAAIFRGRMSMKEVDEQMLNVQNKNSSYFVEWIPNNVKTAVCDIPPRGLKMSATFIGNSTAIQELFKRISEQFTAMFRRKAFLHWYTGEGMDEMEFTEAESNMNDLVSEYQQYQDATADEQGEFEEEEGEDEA
UniProt P07437: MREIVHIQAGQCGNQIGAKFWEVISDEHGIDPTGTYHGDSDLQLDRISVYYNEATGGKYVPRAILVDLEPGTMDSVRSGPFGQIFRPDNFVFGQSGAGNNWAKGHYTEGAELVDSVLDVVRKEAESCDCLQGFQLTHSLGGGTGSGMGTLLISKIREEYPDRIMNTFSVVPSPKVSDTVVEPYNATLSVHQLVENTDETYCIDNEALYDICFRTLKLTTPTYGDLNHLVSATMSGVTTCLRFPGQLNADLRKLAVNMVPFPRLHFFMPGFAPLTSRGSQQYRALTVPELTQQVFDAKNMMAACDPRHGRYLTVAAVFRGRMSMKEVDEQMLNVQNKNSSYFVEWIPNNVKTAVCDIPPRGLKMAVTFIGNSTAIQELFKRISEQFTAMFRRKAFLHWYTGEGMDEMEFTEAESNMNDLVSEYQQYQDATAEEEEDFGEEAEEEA
UniProt P11021, residues 19-654: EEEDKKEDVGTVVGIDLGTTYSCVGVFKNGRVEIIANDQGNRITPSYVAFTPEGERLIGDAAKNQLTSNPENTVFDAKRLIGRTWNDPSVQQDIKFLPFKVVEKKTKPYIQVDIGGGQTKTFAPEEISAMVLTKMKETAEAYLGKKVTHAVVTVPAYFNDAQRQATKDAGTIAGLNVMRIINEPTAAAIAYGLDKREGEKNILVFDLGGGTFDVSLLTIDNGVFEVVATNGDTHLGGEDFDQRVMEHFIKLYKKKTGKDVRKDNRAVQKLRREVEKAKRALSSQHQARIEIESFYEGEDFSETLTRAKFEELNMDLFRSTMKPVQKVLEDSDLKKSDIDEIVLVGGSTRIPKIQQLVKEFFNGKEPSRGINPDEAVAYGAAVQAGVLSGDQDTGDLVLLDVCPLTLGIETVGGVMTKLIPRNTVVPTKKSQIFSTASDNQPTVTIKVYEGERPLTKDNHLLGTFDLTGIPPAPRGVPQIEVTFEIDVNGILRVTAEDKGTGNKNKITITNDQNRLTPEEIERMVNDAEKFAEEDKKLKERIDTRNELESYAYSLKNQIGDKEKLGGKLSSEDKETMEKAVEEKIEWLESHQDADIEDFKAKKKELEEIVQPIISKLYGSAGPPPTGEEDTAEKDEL
UniProt P38646, residues 47-679: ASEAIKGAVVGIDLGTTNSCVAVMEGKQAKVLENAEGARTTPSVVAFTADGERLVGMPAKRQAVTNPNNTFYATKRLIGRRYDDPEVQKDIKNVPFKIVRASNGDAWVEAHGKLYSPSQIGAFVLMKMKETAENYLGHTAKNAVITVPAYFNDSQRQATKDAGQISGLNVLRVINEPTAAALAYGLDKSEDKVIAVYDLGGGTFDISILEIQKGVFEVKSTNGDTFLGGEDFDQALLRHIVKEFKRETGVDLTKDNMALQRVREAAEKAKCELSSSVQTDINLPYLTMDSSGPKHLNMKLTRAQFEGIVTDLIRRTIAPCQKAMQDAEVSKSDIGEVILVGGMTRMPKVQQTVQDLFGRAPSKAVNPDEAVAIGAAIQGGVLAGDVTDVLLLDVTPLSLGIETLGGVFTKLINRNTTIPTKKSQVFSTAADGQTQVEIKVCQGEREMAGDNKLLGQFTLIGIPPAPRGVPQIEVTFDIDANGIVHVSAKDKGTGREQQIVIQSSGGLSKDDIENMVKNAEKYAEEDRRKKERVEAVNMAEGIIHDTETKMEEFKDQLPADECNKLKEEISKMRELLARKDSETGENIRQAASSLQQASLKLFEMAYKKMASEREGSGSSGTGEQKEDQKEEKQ
UniProt P11142: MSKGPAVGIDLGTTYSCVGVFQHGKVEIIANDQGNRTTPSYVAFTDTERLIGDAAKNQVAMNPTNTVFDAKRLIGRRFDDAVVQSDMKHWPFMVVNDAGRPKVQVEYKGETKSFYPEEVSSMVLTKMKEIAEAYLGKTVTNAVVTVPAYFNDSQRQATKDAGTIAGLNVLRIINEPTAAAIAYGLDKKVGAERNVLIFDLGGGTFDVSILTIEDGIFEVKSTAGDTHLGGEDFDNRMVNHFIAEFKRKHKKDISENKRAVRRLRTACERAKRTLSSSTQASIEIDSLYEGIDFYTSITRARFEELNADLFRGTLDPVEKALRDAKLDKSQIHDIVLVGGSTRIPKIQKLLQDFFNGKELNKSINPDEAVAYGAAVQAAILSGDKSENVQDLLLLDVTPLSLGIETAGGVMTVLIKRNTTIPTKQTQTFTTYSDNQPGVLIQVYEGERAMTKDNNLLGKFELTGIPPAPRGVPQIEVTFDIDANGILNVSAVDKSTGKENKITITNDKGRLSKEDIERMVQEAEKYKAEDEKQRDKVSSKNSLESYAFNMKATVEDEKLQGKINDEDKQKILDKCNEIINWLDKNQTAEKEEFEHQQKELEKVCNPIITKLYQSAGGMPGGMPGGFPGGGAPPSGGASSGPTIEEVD

T1: N-terminally Myc-tagged WT AIP (human) (UniProt O00170)
T1 sequence: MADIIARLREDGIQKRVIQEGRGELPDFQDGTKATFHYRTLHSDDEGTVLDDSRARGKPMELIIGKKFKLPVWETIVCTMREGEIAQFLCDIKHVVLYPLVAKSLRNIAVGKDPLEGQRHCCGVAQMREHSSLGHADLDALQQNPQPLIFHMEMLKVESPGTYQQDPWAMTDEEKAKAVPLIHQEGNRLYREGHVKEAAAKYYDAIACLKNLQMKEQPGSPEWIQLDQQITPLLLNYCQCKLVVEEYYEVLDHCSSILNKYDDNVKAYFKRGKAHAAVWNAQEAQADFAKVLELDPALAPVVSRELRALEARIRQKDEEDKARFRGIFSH

B1: HA-tagged NEFL (neurofilament light polypeptide) (protein, UniProt P07196 1-543)
chain: MSSFSYEPYYSTSYKRRYVETPRVHISSVRSGYSTARSAYSSYSAPVSSSLSVRRSYSSSSGSLMPSLENLDLSQVAAISNDLKSIRTQEKAQLQDLNDRFASFIERVHELEQQNKVLEAELLVLRQKHSEPSRFRALYEQEIRDLRLAAEDATNEKQALQGEREGLEETLRNLQARYEEEVLSREDAEGRLMEARKGADEAALARAELEKRIDSLMDEISFLKKVHEEEIAELQAQIQYAQISVEMDVTKPDLSAALKDIRAQYEKLAAKNMQNAEEWFKSRFTVLTESAAKNTDAVRAAKDEVSESRRLLKAKTLEIEACRGMNEALEKQLQELEDKQNADISAMQDTINKLENELRTTKSEMARYLKEYQDLLNVKMALDIEIAAYRKLLEGEETRLSFTSVGSITSGYSQSSQVFGRSAYGGLQTSSYLMSTRSFPSYYTSHVQEEQIEVEETIEAAKAEEAKDEPPSEGEAEEEEKDKEEAEEEEAAEEEEAAKEESEEAKEEEEGGEGEEGEETKEAEEEEKKVEGAGEEQAAKKKD
B2: HA-tagged CBR1 (carbonyl reductase [NADPH] 1) (protein, UniProt P16152 1-277)
chain: MSSGIHVALVTGGNKGIGLAIVRDLCRLFSGDVVLTARDVTRGQAAVQQLQAEGLSPRFHQLDIDDLQSIRALRDFLRKEYGGLDVLVNNAGIAFKVADPTPFHIQAEVTMKTNFFGTRDVCTELLPLIKPQGRVVNVSSIMSVRALKSCSPELQQKFRSETITEEELVGLMNKFVEDTKKGVHQKEGWPSSAYGVTKIGVTVLSRIHARKLSEQRKGDKILLNACCPGWVRTDMAGPKATKSPEEGAETPVYLALLPPDAEGPHGQFVSEKRVEQW

biological target: T1, N-terminally Myc-tagged WT AIP (human); test: co-IP; Myc-AIP and one HA-tagged partner co-transfected in HEK293; lysis in 150 mM NaCl, 10 mM Tris-Cl pH 7.5, 10% glycerol, 1% IGEPAL CA-630; IP with anti-Myc, anti-HA (anti-ACTB for ACTB) or mouse IgG control; Western blot with anti-Myc and anti-HA

| binding | Molecule |
| --- | --- |
| binds | HA-tagged NME1 (nucleoside diphosphate kinase A) (from UniProt P15531 1-152) |
| binds weakly | HA-tagged SOD1 (superoxide dismutase [Cu-Zn]) (from UniProt P00441 1-154) |
| binds | N-terminally HA-tagged HSP90AA1 (heat shock protein 90-alpha) (from UniProt P07900 1-732) |
| binds | N-terminally HA-tagged HSP90AB1 (heat shock protein 90-beta) (from UniProt P08238 1-724) |
| binds | HA-tagged TUBB2A (tubulin beta-2A chain) (from UniProt Q13885 1-445) |
| binds | HA-tagged TUBB (tubulin beta chain) (from UniProt P07437 1-444) |
| binds | N-terminally HA-tagged HSPA5 (78 kDa glucose-regulated protein) (from UniProt P11021 19-654) |
| binds | N-terminally HA-tagged HSPA9 (stress-70 protein, mitochondrial) (from UniProt P38646 47-679) |
| binds | N-terminally HA-tagged HSPA8 (heat shock cognate 71 kDa protein) (from UniProt P11142 1-646) |

biological target: T1, N-terminally Myc-tagged WT AIP (human); test: as above; remark: another data set of the same source

| binding | Molecule |
| --- | --- |
| no binding | B1 |
| no binding | B2 |
